Results: article PMC11116815
These are yes or no findings as the source states them, for the method shown. In cells and extracts the contact can be indirect. Some results given as binding are weak or reduced against the parent protein; the word gives no strength. For some assays here: Sequences can lack the tags named with a protein.

Amino acid sequences for entries named in this document (tags omitted). Residues count along the entry.
UniProt P37288: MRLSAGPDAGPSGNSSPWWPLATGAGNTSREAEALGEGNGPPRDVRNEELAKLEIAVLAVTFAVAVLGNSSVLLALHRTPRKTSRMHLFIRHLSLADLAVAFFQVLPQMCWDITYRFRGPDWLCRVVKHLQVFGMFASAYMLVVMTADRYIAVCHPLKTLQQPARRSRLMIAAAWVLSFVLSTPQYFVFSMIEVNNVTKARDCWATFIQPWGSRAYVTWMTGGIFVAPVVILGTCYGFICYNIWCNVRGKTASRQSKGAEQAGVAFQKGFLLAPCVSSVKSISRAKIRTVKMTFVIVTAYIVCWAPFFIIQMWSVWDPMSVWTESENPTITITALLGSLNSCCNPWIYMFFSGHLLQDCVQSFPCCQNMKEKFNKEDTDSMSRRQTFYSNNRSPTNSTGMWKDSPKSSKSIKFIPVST
UniProt P41597: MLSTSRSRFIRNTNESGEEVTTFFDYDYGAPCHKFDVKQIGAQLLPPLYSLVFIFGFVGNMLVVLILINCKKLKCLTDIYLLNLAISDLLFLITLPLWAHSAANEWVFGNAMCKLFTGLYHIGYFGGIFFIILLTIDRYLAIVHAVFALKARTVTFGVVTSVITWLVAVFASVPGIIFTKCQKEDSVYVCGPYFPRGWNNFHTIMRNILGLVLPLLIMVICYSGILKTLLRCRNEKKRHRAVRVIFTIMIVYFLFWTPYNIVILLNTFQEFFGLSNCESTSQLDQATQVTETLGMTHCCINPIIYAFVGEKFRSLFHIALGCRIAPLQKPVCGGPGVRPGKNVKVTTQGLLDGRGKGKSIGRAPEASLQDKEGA
UniProt P51685: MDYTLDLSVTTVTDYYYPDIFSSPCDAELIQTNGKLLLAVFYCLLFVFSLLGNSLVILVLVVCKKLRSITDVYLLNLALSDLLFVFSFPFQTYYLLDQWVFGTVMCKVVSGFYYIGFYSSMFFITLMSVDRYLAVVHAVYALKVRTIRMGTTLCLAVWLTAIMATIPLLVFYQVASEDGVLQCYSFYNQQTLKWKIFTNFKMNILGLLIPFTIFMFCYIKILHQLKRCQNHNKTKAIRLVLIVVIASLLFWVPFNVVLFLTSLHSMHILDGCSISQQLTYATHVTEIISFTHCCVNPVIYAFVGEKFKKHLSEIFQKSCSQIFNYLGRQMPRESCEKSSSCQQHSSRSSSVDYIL
UniProt P25025: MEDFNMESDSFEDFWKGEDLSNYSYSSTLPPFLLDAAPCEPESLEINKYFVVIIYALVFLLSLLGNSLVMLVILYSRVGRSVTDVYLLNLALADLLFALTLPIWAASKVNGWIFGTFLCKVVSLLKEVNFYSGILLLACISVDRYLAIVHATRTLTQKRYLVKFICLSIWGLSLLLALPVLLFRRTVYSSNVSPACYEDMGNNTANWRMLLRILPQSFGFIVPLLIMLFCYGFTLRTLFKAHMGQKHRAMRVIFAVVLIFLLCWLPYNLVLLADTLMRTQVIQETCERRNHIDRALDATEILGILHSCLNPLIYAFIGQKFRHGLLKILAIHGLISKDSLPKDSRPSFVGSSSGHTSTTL
UniProt P49682: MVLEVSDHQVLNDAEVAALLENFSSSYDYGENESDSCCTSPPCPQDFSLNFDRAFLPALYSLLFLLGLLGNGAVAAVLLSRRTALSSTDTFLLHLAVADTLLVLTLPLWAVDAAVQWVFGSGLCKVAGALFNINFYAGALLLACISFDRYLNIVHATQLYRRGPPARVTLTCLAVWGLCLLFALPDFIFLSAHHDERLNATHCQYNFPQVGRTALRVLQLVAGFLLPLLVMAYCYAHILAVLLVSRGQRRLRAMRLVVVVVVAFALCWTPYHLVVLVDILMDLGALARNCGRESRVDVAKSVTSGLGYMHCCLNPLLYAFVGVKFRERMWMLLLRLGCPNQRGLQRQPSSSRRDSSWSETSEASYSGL
UniProt P61073: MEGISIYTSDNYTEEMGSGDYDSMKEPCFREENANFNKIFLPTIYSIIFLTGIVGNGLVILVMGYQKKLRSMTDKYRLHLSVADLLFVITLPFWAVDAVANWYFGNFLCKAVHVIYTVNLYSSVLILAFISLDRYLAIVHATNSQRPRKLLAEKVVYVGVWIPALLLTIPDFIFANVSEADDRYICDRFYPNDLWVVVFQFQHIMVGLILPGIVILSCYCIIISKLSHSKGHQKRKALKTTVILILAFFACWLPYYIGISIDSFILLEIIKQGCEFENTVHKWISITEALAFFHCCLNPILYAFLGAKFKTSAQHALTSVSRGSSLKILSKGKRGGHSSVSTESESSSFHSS
UniProt P32302: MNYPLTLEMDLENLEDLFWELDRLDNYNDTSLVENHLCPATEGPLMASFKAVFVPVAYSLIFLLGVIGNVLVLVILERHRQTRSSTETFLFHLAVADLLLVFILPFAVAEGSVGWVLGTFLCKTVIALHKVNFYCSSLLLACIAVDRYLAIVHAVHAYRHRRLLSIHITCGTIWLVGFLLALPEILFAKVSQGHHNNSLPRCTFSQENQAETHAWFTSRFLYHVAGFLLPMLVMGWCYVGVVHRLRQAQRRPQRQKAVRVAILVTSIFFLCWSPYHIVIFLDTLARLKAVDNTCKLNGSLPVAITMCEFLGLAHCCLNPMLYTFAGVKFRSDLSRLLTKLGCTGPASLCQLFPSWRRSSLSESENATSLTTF
UniProt O00574: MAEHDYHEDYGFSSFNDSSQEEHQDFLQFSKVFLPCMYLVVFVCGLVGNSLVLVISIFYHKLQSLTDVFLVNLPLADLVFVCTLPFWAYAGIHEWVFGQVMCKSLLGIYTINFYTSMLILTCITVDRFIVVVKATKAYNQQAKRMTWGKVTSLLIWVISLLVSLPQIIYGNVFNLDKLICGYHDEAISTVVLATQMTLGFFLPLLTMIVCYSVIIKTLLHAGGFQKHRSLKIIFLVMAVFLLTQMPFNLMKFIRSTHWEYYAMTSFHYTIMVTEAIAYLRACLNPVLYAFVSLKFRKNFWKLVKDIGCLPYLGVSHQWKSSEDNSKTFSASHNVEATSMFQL
UniProt Q13255, residues 19-1194: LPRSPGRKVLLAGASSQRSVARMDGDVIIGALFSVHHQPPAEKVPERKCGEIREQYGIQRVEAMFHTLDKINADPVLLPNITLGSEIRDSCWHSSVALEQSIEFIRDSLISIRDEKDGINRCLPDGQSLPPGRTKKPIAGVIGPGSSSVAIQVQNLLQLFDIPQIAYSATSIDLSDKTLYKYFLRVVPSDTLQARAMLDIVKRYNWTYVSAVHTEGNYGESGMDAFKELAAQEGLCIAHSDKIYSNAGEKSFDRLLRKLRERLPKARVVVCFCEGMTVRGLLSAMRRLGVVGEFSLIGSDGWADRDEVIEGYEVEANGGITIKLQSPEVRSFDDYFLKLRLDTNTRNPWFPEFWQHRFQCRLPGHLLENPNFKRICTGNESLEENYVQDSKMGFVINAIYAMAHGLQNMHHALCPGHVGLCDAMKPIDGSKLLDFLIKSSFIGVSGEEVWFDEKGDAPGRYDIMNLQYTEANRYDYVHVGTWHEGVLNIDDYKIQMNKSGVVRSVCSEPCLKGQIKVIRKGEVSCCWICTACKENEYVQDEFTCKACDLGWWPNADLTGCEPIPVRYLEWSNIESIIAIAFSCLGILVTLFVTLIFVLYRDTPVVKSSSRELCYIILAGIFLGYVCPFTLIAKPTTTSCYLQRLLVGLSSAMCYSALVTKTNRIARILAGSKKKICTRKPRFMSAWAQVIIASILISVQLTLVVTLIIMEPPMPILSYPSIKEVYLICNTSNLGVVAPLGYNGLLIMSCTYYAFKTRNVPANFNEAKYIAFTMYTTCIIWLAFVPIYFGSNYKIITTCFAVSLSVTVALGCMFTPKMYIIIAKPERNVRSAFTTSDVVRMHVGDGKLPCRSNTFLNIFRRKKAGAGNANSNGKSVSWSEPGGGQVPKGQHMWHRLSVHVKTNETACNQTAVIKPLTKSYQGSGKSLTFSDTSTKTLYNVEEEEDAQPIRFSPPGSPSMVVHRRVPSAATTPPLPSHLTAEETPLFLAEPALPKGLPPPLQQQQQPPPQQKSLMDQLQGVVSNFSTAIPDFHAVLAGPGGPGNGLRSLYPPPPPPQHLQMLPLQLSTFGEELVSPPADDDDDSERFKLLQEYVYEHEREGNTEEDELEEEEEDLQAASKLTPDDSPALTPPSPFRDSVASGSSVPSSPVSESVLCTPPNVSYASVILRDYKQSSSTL

T1: α1B-adrenergic receptor (α1B-AR) (human (endogenous in THP-1)) (UniProt P35368)
T1 sequence: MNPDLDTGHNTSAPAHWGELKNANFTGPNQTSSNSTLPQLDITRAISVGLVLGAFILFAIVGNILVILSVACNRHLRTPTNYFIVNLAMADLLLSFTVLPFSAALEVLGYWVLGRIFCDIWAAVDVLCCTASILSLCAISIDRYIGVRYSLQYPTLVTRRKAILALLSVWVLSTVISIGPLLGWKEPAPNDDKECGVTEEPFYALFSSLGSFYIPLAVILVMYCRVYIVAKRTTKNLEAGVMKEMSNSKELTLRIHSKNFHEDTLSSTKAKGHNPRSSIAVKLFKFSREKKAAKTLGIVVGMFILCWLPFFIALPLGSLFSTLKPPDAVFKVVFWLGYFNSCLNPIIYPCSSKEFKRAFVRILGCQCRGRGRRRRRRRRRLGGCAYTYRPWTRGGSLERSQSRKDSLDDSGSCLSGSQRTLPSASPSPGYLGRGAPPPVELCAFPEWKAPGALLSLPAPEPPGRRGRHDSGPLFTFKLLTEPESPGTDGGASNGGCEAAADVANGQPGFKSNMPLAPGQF

T2: α1D-adrenergic receptor (α1D-AR) (human (endogenous in THP-1)) (UniProt P25100)
T2 sequence: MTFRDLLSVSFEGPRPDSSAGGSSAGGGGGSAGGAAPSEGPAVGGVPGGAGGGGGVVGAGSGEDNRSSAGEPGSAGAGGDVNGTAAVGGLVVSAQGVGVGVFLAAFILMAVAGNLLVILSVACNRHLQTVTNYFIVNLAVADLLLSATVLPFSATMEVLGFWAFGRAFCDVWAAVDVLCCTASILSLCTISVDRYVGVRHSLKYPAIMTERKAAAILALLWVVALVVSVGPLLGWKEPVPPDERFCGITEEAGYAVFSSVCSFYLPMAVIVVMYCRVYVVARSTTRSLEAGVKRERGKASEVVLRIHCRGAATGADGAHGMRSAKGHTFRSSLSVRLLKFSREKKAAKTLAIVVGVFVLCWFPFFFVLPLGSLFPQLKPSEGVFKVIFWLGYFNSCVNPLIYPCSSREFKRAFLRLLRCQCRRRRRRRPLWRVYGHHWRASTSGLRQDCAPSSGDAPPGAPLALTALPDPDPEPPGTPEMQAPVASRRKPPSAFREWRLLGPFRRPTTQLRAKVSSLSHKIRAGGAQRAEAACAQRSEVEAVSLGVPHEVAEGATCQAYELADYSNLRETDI

B1: CCR1-YFP (receptor, UniProt P32246 1-355)
chain: METPNTTEDYDTTTEFDYGDATPCQKVNERAFGAQLLPPLYSLVFVIGLVGNILVVLVLVQYKRLKNMTSIYLLNLAISDLLFLFTLPFWIDYKLKDDWVFGDAMCKILSGFYYTGLYSEIFFIILLTIDRYLAIVHAVFALRARTVTFGVITSIIIWALAILASMPGLYFSKTQWEFTHHTCSLHFPHESLREWKLFQALKLNLFGLVLPLLVMIICYTGIIKILLRRPNEKKSKAVRLIFVIMIIFFLFWTPYNLTILISVFQDFLFTHECEQSRHLDLAVQVTEVIAYTHCCVNPVIYAFVGERFRKYLRQLFHRRVAVHLVKWLPFLSVDRLERVSSTSPSTGEHELSAGF
B2: CCR4-YFP (receptor, UniProt P51679 1-360)
chain: MNPTDIADTTLDESIYSNYYLYESIPKPCTKEGIKAFGELFLPPLYSLVFVFGLLGNSVVVLVLFKYKRLRSMTDVYLLNLAISDLLFVFSLPFWGYYAADQWVFGLGLCKMISWMYLVGFYSGIFFVMLMSIDRYLAIVHAVFSLRARTLTYGVITSLATWSVAVFASLPGFLFSTCYTERNHTYCKTKYSLNSTTWKVLSSLEINILGLVIPLGIMLFCYSMIIRTLQHCKNEKKNKAVKMIFAVVVLFLGFWTPYNIVLFLETLVELEVLQDCTFERYLDYAIQATETLAFVHCCLNPIIYFFLGEKFRKYILQLFKTCRGLFVLCQYCGLLQIYSADTPSSSYTQSTMDHDLHDAL
B3: chemokine (C-C motif) receptor (CCR)1 (receptor, UniProt P32246 1-355)
chain: B1 chain
B4: α1D-adrenergic receptor (α1D-AR) (receptor, UniProt P25100 1-572)
chain: T2 sequence
B5: CXCR1-YFP (receptor, UniProt P25024 1-350)
chain: MSNITDPQMWDFDDLNFTGMPPADEDYSPCMLETETLNKYVVIIAYALVFLLSLLGNSLVMLVILYSRVGRSVTDVYLLNLALADLLFALTLPIWAASKVNGWIFGTFLCKVVSLLKEVNFYSGILLLACISVDRYLAIVHATRTLTQKRHLVKFVCLGCWGLSMNLSLPFFLFRQAYHPNNSSPVCYEVLGNDTAKWRMVLRILPHTFGFIVPLFVMLFCYGFTLRTLFKAHMGQKHRAMRVIFAVVLIFLLCWLPYNLVLLADTLMRTQVIQESCERRNNIGRALDATEILGFLHSCLNPIIYAFIGQNFRHGFLKILAMHGLVSKEFLARHRVTSYTSSSVNVSSNL
B6: chemokine (C-X-C motif) receptor (CXCR)1 (receptor, UniProt P25024 1-350)
chain: B5 chain

Columns and labels:
[1] = target: arginine vasopressin receptor 1A (AVPR1A) (human (endogenous in THP-1 and human monocytes)) (UniProt P37288); assay: proximity ligation; Duolink PLA on freshly isolated human monocytes (CD14+/CD16-), endogenous receptors
[2] = target: arginine vasopressin receptor 1A (AVPR1A) (human (endogenous in THP-1 and human monocytes)) (UniProt P37288); assay: proximity ligation; Duolink PLA on fixed (4% paraformaldehyde) THP-1 cells, primary antibodies 1 μg/ml; also WT control clones, cells treated with vehicle, 10 μM aVP or 10 μM conivaptan (30 min, 37°C), NT or AVPR1A siRNA, and AVPR1A^KO and ADRA1B^KO clones
[3] = target: T1, α1B-adrenergic receptor (α1B-AR) (human (endogenous in THP-1)); assay: as above
[4] = target: T2, α1D-adrenergic receptor (α1D-AR) (human (endogenous in THP-1)); assay: as above
[5] = target: AVPR1A C-terminally ligated to the energy donor Renilla luciferase (AVPR1A-Rluc) (UniProt P37288); assay: FRET or BRET; saturation BRET in living HEK293T cells: fixed 5 ng AVPR1A-Rluc with increasing amounts of CR-YFP or mGlu1R-YFP; net BRET against YFP fluorescence/luminescence; n = 3 per receptor pair
[6] = target: AVPR1A C-terminally ligated to the energy donor Renilla luciferase (AVPR1A-Rluc) (UniProt P37288); assay: FRET or BRET; BRET screening in living HEK293T cells: 5 ng AVPR1A-Rluc (donor) transfected with 25 ng CR-YFP (acceptor) or increasing amounts of mGlu1R-YFP (control); signals above the 99% prediction band of the mGlu1R control counted as positive; three independent screening experiments; coelenterazine H 5 μM

| Molecule | binding [1] | binding [2] | binding [3] | binding [4] | binding [5] | binding [6] |
| --- | --- | --- | --- | --- | --- | --- |
| CCR2 (from UniProt P41597 1-374) (receptor) | binds | binds | binds | binds | – | – |
| CCR2-YFP (from UniProt P41597 1-374) (receptor) | – | – | – | – | binds | binds |
| CCR8 (from UniProt P51685 1-355) (receptor) | binds | binds | – | – | – | – |
| CCR8-YFP (from UniProt P51685 1-355) (receptor) | – | – | – | – | binds | binds |
| CXCR2-YFP (from UniProt P25025 1-360) (receptor) | – | – | – | – | binds | binds |
| CXCR3-YFP (from UniProt P49682 1-368) (receptor) | – | – | – | – | binds | binds |
| CXCR4-YFP (from UniProt P61073 1-352) (receptor) | – | – | – | – | binds | binds |
| CXCR5-YFP (from UniProt P32302 1-372) (receptor) | – | – | – | – | binds | binds |
| CXCR6-YFP (from UniProt O00574 1-342) (receptor) | – | – | – | – | – | binds |
| chemokine (C-X-C motif) receptor 4 (CXCR4) (from UniProt P61073 1-352) | binds | binds | binds | binds | – | – |
| metabotropic glutamate receptor 1 (mGlu1R)-YFP (from UniProt Q13255 19-1194) | – | – | – | – | no binding | no binding |
| B1 | – | – | – | – | binds | binds |
| B2 | – | – | – | – | binds | binds |
| B3 | binds | binds | binds | binds | – | – |
| B4 | – | – | binds | – | – | – |
| B5 | – | – | – | – | no binding | no binding |
| B6 | no binding | no binding | – | – | – | – |
